# This is one part of the list.
# Legend:
# Assay in all cases: glycan array binding signal (z-score within array); higher = stronger binding
# Settings in all cases: glycan notation: IUPAC condensed, linker removed
# [1] = target: Gal(b1-3)[Neu5Ac(a2-6)]GlcNAc(b1-6)Gal(b1-4)Glc
# Method in brief: (§1)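 Arrays were curated from the Consortium for Functional Glycomics database, 3228 in total, and kept only where the protein sequence was available. Binding is expressed as a within-array Z-score. This score was averaged across arrays of the same protein sequence at different concentrations or buffers and across linkers, and negative values can be read as non-binding.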
# [2] = target: Gal(b1-3)[Neu5Ac(b2-6)]GalNAc
# Method in brief: as §1
# [3] = target: Gal(b1-4)Gal
# Method in brief: as §1
# [4] = target: Gal(b1-4)GalNAc(a1-3)[Fuc(a1-2)]Gal(b1-4)GlcNAc
# Method in brief: as §1
# [5] = target: Gal(b1-4)GalNAc(b1-3)[Fuc(a1-2)]Gal(b1-4)GlcNAc
# Method in brief: as §1
# [6] = target: Gal(b1-4)Glc
# Method in brief: as §1
# [7] = target: Gal(b1-4)Glc6S
# Method in brief: as §1
# [8] = target: Gal(b1-4)GlcNAc
# Method in brief: as §1
# [9] = target: Gal(b1-4)GlcNAc(a1-6)Gal(b1-4)GlcNAc
# Method in brief: as §1
# [10] = target: Gal(b1-4)GlcNAc(b1-2)Man
# Method in brief: as §1
# [11] = target: Gal(b1-4)GlcNAc(b1-2)Man(a1-3)Man(b1-4)GlcNAc(b1-4)GlcNAc
# Method in brief: as §1
# [12] = target: Gal(b1-4)GlcNAc(b1-2)Man(a1-3)[Gal(b1-4)GlcNAc(b1-2)Man(a1-6)]Man(b1-4)GlcNAc(b1-4)GlcNAc
# Method in brief: as §1
# [13] = target: Gal(b1-4)GlcNAc(b1-2)Man(a1-3)[Gal(b1-4)GlcNAc(b1-2)Man(a1-6)]Man(b1-4)GlcNAc(b1-4)[Fuc(a1-6)]GlcNAc
# Method in brief: as §1
# [14] = target: Gal(b1-4)GlcNAc(b1-2)Man(a1-3)[Gal(b1-4)GlcNAc(b1-2)Man(a1-6)][Gal(b1-4)GlcNAc(b1-4)]Man(b1-4)GlcNAc(b1-4)[Fuc(a1-6)]GlcNAc
# Method in brief: as §1
# [15] = target: Gal(b1-4)GlcNAc(b1-2)Man(a1-3)[Gal(b1-4)GlcNAc(b1-2)Man(a1-6)][GlcNAc(b1-4)]Man(b1-4)GlcNAc(b1-4)[Fuc(a1-6)]GlcNAc
# Method in brief: as §1
# [16] = target: Gal(b1-4)GlcNAc(b1-2)Man(a1-3)[Gal(b1-4)GlcNAc(b1-2)][GlcNAc(b1-4)]Man(b1-4)GlcNAc(b1-4)GlcNAc
# Method in brief: as §1
# [17] = target: Gal(b1-4)GlcNAc(b1-2)Man(a1-3)[GlcNAc(b1-2)Man(a1-6)]Man(b1-4)GlcNAc(b1-4)GlcNAc
# Method in brief: as §1
# [18] = target: Gal(b1-4)GlcNAc(b1-2)Man(a1-3)[GlcNAc(b1-4)][Gal(b1-4)GlcNAc(b1-2)Man(a1-6)]Man(b1-4)GlcNAc(b1-4)GlcNAc
# Method in brief: as §1
# [19] = target: Gal(b1-4)GlcNAc(b1-2)Man(a1-3)[Man(a1-6)]Man(b1-4)GlcNAc(b1-4)GlcNAc
# Method in brief: as §1
# [20] = target: Gal(b1-4)GlcNAc(b1-2)Man(a1-6)Man(b1-4)GlcNAc(b1-4)GlcNAc
# Method in brief: as §1
# [21] = target: Gal(b1-4)GlcNAc(b1-2)Man(a1-6)[GlcNAc(b1-2)Man(a1-3)]Man(b1-4)GlcNAc(b1-4)GlcNAc
# Method in brief: as §1
# [22] = target: Gal(b1-4)GlcNAc(b1-2)Man(a1-6)[Man(a1-3)]Man(b1-4)GlcNAc(b1-4)GlcNAc
# Method in brief: as §1
# [23] = target: Gal(b1-4)GlcNAc(b1-2)[Gal(b1-4)GlcNAc(b1-4)]Man(a1-3)[Gal(b1-4)GlcNAc(b1-2)Man(a1-6)]Man(b1-4)GlcNAc(b1-4)GlcNAc
# Method in brief: as §1
# [24] = target: Gal(b1-4)GlcNAc(b1-2)[Gal(b1-4)GlcNAc(b1-4)]Man(a1-3)[Gal(b1-4)GlcNAc(b1-2)[Gal(b1-4)GlcNAc(b1-6)]Man(a1-6)]Man(b1-4)GlcNAc(b1-4)GlcNAc
# Method in brief: as §1
# [25] = target: Gal(b1-4)GlcNAc(b1-2)[Gal(b1-4)GlcNAc(b1-4)]Man(a1-3)[GlcNAc(b1-4)][Gal(b1-4)GlcNAc(b1-2)Man(a1-6)]Man(b1-4)GlcNAc(b1-4)GlcNAc
# Method in brief: as §1
# [26] = target: Gal(b1-4)GlcNAc(b1-2)[Gal(b1-4)GlcNAc(b1-4)]Man(a1-3)[GlcNAc(b1-4)][Gal(b1-4)GlcNAc(b1-2)[Gal(b1-4)GlcNAc(b1-6)]Man(a1-6)]Man(b1-4)GlcNAc(b1-4)GlcNAc
# Method in brief: as §1
# [27] = target: Gal(b1-4)GlcNAc(b1-2)[Gal(b1-4)GlcNAc(b1-6)]Man(a1-6)[Gal(b1-4)GlcNAc(b1-2)Man(a1-3)]Man(b1-4)GlcNAc(b1-4)GlcNAc
# Method in brief: as §1
# [28] = target: Gal(b1-4)GlcNAc(b1-2)[Gal(b1-4)GlcNAc(b1-6)]Man(a1-6)[Gal(b1-4)GlcNAc(b1-2)Man(a1-3)]Man(b1-4)GlcNAc(b1-4)[Fuc(a1-6)]GlcNAc
# Method in brief: as §1
# [29] = target: Gal(b1-4)GlcNAc(b1-2)[Gal(b1-4)GlcNAc(b1-6)]Man(a1-6)[GlcNAc(b1-4)][Gal(b1-4)GlcNAc(b1-2)Man(a1-3)]Man(b1-4)GlcNAc(b1-4)GlcNAc
# Method in brief: as §1
# [30] = target: Gal(b1-4)GlcNAc(b1-2)[Gal(b1-4)GlcNAc(b1-6)]Man(a1-6)[GlcNAc(b1-4)][Gal(b1-4)GlcNAc(b1-2)[Gal(b1-4)GlcNAc(b1-4)]Man(a1-3)]Man(b1-4)GlcNAc(b1-4)[Fuc(a1-6)]GlcNAc
# Method in brief: as §1
# [31] = target: Gal(b1-4)GlcNAc(b1-3)Gal(b1-3)GalNAc
# Method in brief: as §1
# [32] = target: Gal(b1-4)GlcNAc(b1-3)Gal(b1-3)GlcNAc
# Method in brief: as §1
# [33] = target: Gal(b1-4)GlcNAc(b1-3)Gal(b1-4)Glc
# Method in brief: as §1
# [34] = target: Gal(b1-4)GlcNAc(b1-3)Gal(b1-4)GlcNAc
# Method in brief: as §1
# [35] = target: Gal(b1-4)GlcNAc(b1-3)Gal(b1-4)GlcNAc(b1-2)Man(a1-3)[Gal(b1-4)GlcNAc(b1-3)Gal(b1-4)GlcNAc(b1-2)Man(a1-6)]Man(b1-4)GlcNAc(b1-4)GlcNAc
# Method in brief: as §1
# [36] = target: Gal(b1-4)GlcNAc(b1-3)Gal(b1-4)GlcNAc(b1-2)Man(a1-3)[Gal(b1-4)GlcNAc(b1-3)Gal(b1-4)GlcNAc(b1-2)Man(a1-6)]Man(b1-4)GlcNAc(b1-4)[Fuc(a1-6)]GlcNAc
# Method in brief: as §1
# [37] = target: Gal(b1-4)GlcNAc(b1-3)Gal(b1-4)GlcNAc(b1-2)[Gal(b1-4)GlcNAc(b1-3)Gal(b1-4)GlcNAc(b1-6)]Man(a1-6)[Gal(b1-4)GlcNAc(b1-3)Gal(b1-4)GlcNAc(b1-2)Man(a1-3)]Man(b1-4)GlcNAc(b1-4)GlcNAc
# Method in brief: as §1
# [38] = target: Gal(b1-4)GlcNAc(b1-3)Gal(b1-4)GlcNAc(b1-2)[Gal(b1-4)GlcNAc(b1-3)Gal(b1-4)GlcNAc(b1-6)]Man(a1-6)[Gal(b1-4)GlcNAc(b1-3)Gal(b1-4)GlcNAc(b1-2)Man(a1-3)]Man(b1-4)GlcNAc(b1-4)[Fuc(a1-6)]GlcNAc
# Method in brief: as §1
binder,measurement,setting,value
PpFlo2 (Pichia pastoris) (protein) MGSSHHHHHHSSGLVPRGSHMDDSGNGDNSDTAYGCDITTNAVDGFDATIYQYNANDLRLIRDPTFMSTGYLGRNVLNKISGVTVPGFNIWNPSSRTATVYGVKNVNYYNMVLELKGYFKADVSGDYKLTLSHIDDSSMLFFGKETAFKCCDAGSIPLNEAPTDYSLFTIKPSNQVNSEVISATQYLEAGKYYPVRIVFVNALERARFDFKLTIPSGAVLDDFQNYIYQFGDLDENSCHE,glycan array binding signal (z-score),[1],-0.357
same,glycan array binding signal (z-score),[2],-0.298
same,glycan array binding signal (z-score),[3],-0.302
same,glycan array binding signal (z-score),[4],-0.294
same,glycan array binding signal (z-score),[5],-0.302
same,glycan array binding signal (z-score),[6],-0.237
same,glycan array binding signal (z-score),[7],-0.296
same,glycan array binding signal (z-score),[8],-0.172
same,glycan array binding signal (z-score),[9],-0.273
same,glycan array binding signal (z-score),[10],-0.299
same,glycan array binding signal (z-score),[11],-0.282
same,glycan array binding signal (z-score),[12],-0.256
same,glycan array binding signal (z-score),[13],-0.292
same,glycan array binding signal (z-score),[14],-0.267
same,glycan array binding signal (z-score),[15],-0.272
same,glycan array binding signal (z-score),[16],-0.344
same,glycan array binding signal (z-score),[17],1.04
same,glycan array binding signal (z-score),[18],-0.267
same,glycan array binding signal (z-score),[19],-0.273
same,glycan array binding signal (z-score),[20],-0.283
same,glycan array binding signal (z-score),[21],2.26
same,glycan array binding signal (z-score),[22],-0.155
same,glycan array binding signal (z-score),[23],-0.138
same,glycan array binding signal (z-score),[24],-0.241
same,glycan array binding signal (z-score),[25],-0.3
same,glycan array binding signal (z-score),[26],-0.269
same,glycan array binding signal (z-score),[27],-0.288
same,glycan array binding signal (z-score),[28],-0.269
same,glycan array binding signal (z-score),[29],-0.297
same,glycan array binding signal (z-score),[30],-0.275
same,glycan array binding signal (z-score),[31],-0.036
same,glycan array binding signal (z-score),[32],0.191
same,glycan array binding signal (z-score),[33],-0.147
same,glycan array binding signal (z-score),[34],0.028
same,glycan array binding signal (z-score),[35],-0.255
same,glycan array binding signal (z-score),[36],-0.25
same,glycan array binding signal (z-score),[37],-0.247
same,glycan array binding signal (z-score),[38],-0.225

# — the supplement of paper PMC8728848
